From the supplement of paper PMC3334620
Whole data set: some 33,000 sequences, median “E-score (-0.5 to 0.5)” near -0.017, cut for the highest 2% near 0.3. The list shows a part of the results.

Biological target: T1, Sut1 (UniProt P53032)
T1 sequence: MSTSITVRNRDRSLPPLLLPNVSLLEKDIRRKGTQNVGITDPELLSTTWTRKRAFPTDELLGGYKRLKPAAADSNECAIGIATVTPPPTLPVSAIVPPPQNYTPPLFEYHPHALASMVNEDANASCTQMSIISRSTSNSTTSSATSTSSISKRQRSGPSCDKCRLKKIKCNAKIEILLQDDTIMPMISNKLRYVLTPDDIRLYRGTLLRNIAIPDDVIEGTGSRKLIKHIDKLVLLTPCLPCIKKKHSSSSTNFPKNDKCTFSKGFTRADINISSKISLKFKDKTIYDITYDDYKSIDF
Assay: PBM E-score (8-mer binding enrichment) (E-score (-0.5 to 0.5)); higher = stronger / more preferred TF binding; most listed sequences are background and not binding sites
Conditions: protein concentration: 200 nM; construct: GST-full length
Experimental: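 Universal 'all 10-mer' protein binding microarrays (Agilent AMADID 015681) probed with GST-tagged S. cerevisiae TFs (full-length or DBD) made by in vitro transcription/translation (PURExpress), about 100-200 nM. Bound TF was detected with fluorescent anti-GST. Each ungapped 8-mer (which stands for itself and its reverse complement) is scored by the PBM enrichment score (E-score), a modified Wilcoxon-Mann-Whitney statistic from -0.5 to +0.5, computed with the Universal PBM Analysis Suite. Scale: above 0.35 generally sequence-specific binding.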

Sequence | PBM E-score
CCGTTCAG | 0.0537
AGTTGCCG | -0.0439
CTTAGGCC | -0.18
ATCTAAAG | 0.108
ACGTCTAA | 0.0309
CCTTTTCG | 0.0621
GCGCATAC | -0.179
GGTCTAGA | -0.118
CATTACGG | -0.0054
CACGGTAA | 0.0752
AAGAGTGG | -0.205
GGAACCAA | 0.00579
GATCCCCC | -0.213
ACACAGGC | -0.0837
GAACGTTA | -0.102
GGATACTA | -0.064
CCGCGTAG | -0.117
TAACGCAA | -0.0186
GATGATGC | -0.181
GTGCCATA | -0.132
GCTAAGCC | -0.123
CCGTCCAG | -0.098
CTCCGGAC | 0.473
AACGCGCG | 0.148
GGCAGCGA | -0.111

Sequence | PBM E-score
GGGATACA | -0.064
ATGGAAAT | 0.18
GGTCTCGA | 0.00072
GACGGTCA | -0.253
ACCGAGGC | -0.207
AGAAATCA | 0.226
CCCCTAGA | -0.257
CCACACAC | 0.0627
GTCACAAC | -0.0323
CGACGGAA | 0.116
GCGAGGAC | -0.19
CTTGCTTC | 0.128
AGTTCATA | 0.049
AAGCACCG | -0.0914
GCGCCTGA | -0.0731
CACTGGAC | -0.0388
ATAGGGAT | 0.0394
TCCCGGGA | -0.0502
ACTACTTA | 0.139
CTCTGGAA | -0.202
ACAACAAA | 0.19
CCTCGGCA | -0.0698
CCGAGATA | 0.239
CGAGCAAA | -0.0663
AAACCGCG | 0.266

Sequence | PBM E-score
GGCCAGAA | -0.0485
CAGACGAA | 0.298
CGCTTCGA | 0.0968
GACAGATA | 0.0695
GTCATTAA | 0.196
CAGCTACG | -0.289
CGCGGTCC | 0.0314
CATGCTTC | -0.0576
AAATGAAC | 0.101
GGCAGTTA | -0.137
CAACGGCA | -0.0932
GATCGCAA | -0.0316
GCCACGTA | -0.239
CCCGCAGC | -0.0461
GGGAAATA | 0.0403
CTATCTGC | -0.0665
ATGGTAAC | 0.0287
CCATCGAC | -0.103
GAACGTCC | -0.0131
AACTATGA | 0.135
TAGAAAAA | 0.19
AGGCCATA | -0.255
ACTTAGTG | 0.0253
ATCGATAC | 0.0483
AGGATAAC | -0.0991

Sequence | PBM E-score
CACCTGGG | -0.292
AGTGATGG | -0.054
AGCCACGA | -0.106
GTTGGTTA | 0.0973
AGTTTACG | 0.103
AGTCTTAT | 0.0262
CTACGCAA | -0.0133
CCTAGCAG | -0.284
CAATGATA | 0.144
CCTCACAG | -0.16
GTTTGGTA | 0.178
AGTTCACC | 0.101
GAGGCCAC | -0.125
CGTGATAA | 0.0521
ATTCTTCG | 0.026
AAAGCCTT | 0.0186
CTGCATAA | 0.0577
GTGGCCCA | -0.22
AGGTAATA | 0.239
ATCCCTCG | -0.0959
AGGCCACA | -0.278
CTGATCGA | -0.17
AATACAGC | 0.085
CAAAAGCC | -0.0886
CGATTGTC | 0.104

Sequence | PBM E-score
TCCCCAAA | 0.0678
AGGTCGTG | -0.236
GAAGGTAC | -0.197
ACTTCATC | 0.145
CCGCGGCG | 0.0767
CCAGTGAA | 0.00618
GACGCCTA | -0.302
AAGACTCG | 0.0602
CAAGACCC | -0.304
CACGCTGA | -0.124
CAGCGCAG | -0.114
AGCACAAC | 0.109
CTGGTTTC | -0.0186
ACCGAACT | 0.126
AAATTGTG | 0.0696
AAGGCTGA | -0.202
AAGAACAC | 0.0781
CAGTGCAC | -0.0523
GACCCCAC | -0.154
AAAAACAC | 0.108
ACCTGACC | -0.301
TCAATGGA | -0.004
GAGAACCC | -0.169
GGTCGTGA | -0.2
ATACTTTG | 0.119

Sequence | PBM E-score
AATTATCT | 0.207
AGATGCAG | -0.255
CTCTTATA | 0.148
GTAGCGTA | -0.0771
AGTGTGCA | -0.0527
ACGTTGAT | 0.116
CTGGCGGC | 0.146
CAAGACGA | 0.0668
ACAGCCCA | -0.267
ATTTGAGC | 0.105
CATAGGTA | -0.118
ATGACATA | 0.055
CGATGCAA | 0.0127
CCGACCGG | 0.0937
ATTCGATG | -0.0901
ATCGCTCA | -0.115
GGGAGCCC | -0.286
AGCCATGA | 0.0293
AACATTTA | 0.187
CAGATTAG | -0.0969
TAACTTCA | 0.0919
CTGTTGTA | 0.0819
AAAGAACA | 0.276
GACAACAA | 0.106
AGCGGAAG | 0.0483

Sequence | PBM E-score
AGTGAAGA | -0.0804
GAGTGCAC | -0.129
AATTTTCC | 0.238
AGAGATAT | 0.00084
CCTATAAA | -0.0583
CGGGAAAA | 0.0862
GCCGGCGA | 0.0246
ATTTTGCA | 0.126
AGCCGTAT | -0.0789
GACCGGCC | -0.104
CCAGTGCC | -0.303
ACGCAGCC | -0.142
AAAAGCCG | -0.0748
AAATTAGT | 0.222
AATCAAAA | 0.189
CCGCGCAC | -0.0717
GAGGCAGA | -0.257
ACGTAGTC | -0.252
CCCGCCGG | -0.17
CAATTAAC | 0.245
AATTGGCA | -0.183
AGGGGTTC | -0.181
